What all share (experiment): Primary Screen for Target Class Profiling of Small Molecule Inhibitors of Methyltransferases
In test [1] the target is Glycine N-methyltransferase (Homo sapiens) (UniProt Q14749). Conditions: purified enzyme, MTase-Glo SAH luminescence; measured here: GNMT inhibition; at 40 µM; stronger effect = lower value. Put shortly:
(§1)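 Each enzyme was assayed with SAM and its substrate. SAH formation detected by MTase-Glo luminescence; single-point 40 uM screen[…].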

Test [2] concerns the target Guanidinoacetate N-methyltransferase (Homo sapiens) (UniProt Q14353). The settings on record: purified enzyme, MTase-Glo SAH luminescence; measured here: GAMT inhibition; at 40 µM; stronger effect = lower value. An outline of the steps: as §1
Test [3] has as its target Histamine N-methyltransferase (Homo sapiens) (UniProt P50135). Conditions: purified enzyme, MTase-Glo SAH luminescence; measured here: HNMT inhibition; at 40 µM; stronger effect = lower value. Put shortly:
as §1

In test [4] the target is Nicotinamide N-methyltransferase (Homo sapiens) (UniProt P40261). Conditions: purified enzyme, MTase-Glo SAH luminescence; measured here: NNMT inhibition; at 40 µM; stronger effect = lower value. An outline of the steps: as §1
Test [5] concerns the target Phenylethanolamine N-methyltransferase (Homo sapiens) (UniProt P11086). Conditions: purified enzyme, MTase-Glo SAH luminescence; measured here: PNMT inhibition; at 40 µM; stronger effect = lower value. Put shortly: as §1

This is one part of the list. Further columns of the screen follow, without active or inactive calls.
% is scaled to controls: 0 for no effect and ±100 for the full control effect.

With `CC1(C(=O)NC2CCCCCC2)Cn2c(nc3ccccc32)C(=O)N1CC1CCCO1` (stereo unspecified), the activity change, negative = inhibition in test [1] is -8.53%; in test [2], 5.11%; in test [3] it was 0.277%; in test [4] it was 4.69%; in test [5] it was 0.306%.
The corresponding values for `c1cc(OCCN2CCCCC2)cc(-c2n[nH]c3ccc(-c4ncn[nH]4)cc23)c1` are -13.6%, -6.6%, -52.6%, -31.4% and -10.2%.
For `O=C(c1ccccc1OC(F)(F)F)N1CCC2(CC1)CC(O)CCO2` (stereo unspecified), in that order: -1.85%, -6.88%, -3.84%, 3.15% and -7.56%.
The corresponding values for `COc1cc(OC)c(N2C(=O)CSc3c(c4ccccc4n3C)C2C(=O)NCc2ccccc2)cc1Cl` (stereo unspecified) are -5.31%, 5.05%, 0.04%, 0.107% and -1.47%.
As for `Cc1ccc(N2C(=O)c3cc4occc4n3CC2(C)C(=O)NC2CCCCC2)c(C)c1` (stereo unspecified), the activity change, negative = inhibition in test [1] came to 3.16%; in test [2], 0.207%; in test [3] it was 6.63%; in test [4], 15.2%; in test [5], 1.97%.
Take `Cc1cccc(CSc2nnc3n(CC(C)C)c(=O)c4cc(F)ccc4n23)c1`: the activity change, negative = inhibition in test [1] is 1.87%; in test [2], 2.06%; in test [3], 3.76%; in test [4] it was -4.92%; in test [5] it was 6.34%.
On to `CCCn1c(=O)c2ccc(C(=O)NC(C)CC)cc2n2c(=O)[nH]nc12` (stereo unspecified), for which the activity change, negative = inhibition in test [1] is -7.25%; in test [2] it was 1.32%; in test [3] it was -2.17%; in test [4], 5.29%; in test [5], -12.9%.
The corresponding values for `CC1(C)CN(C(=O)COc2ccccc2)CC(=O)N(Cc2ccccc2)C1` are -0.437%, -3.23%, 1.02%, -8.88% and -10.9%.
Consider `CCCCCOC(=O)Nc1nc(=O)n([C@@H]2O[C@H](C)[C@@H](O)[C@H]2O)cc1F`, for which the activity change, negative = inhibition in test [2] is 4.5%; in test [4] it was -2.7%; in test [5], 6.29%.
Take `Cc1ccc(-c2n[nH]n3c2nc(=O)c2ccc(C(=O)NCc4ccccc4)cc23)cc1`: the activity change, negative = inhibition in test [1] is -3.96%; in test [2] it was -6.42%; in test [3], -7.56%; in test [4] it was -8.7%; in test [5], -9.19%.
`CCC(C(=O)N(C)Cc1ccc(OC)c2ncccc12)n1cccn1` (stereo unspecified): the activity change, negative = inhibition was -13.7% in test [1]; 0.085% in test [2]; -2.27% in test [3]; -2.46% in test [4]; -1.15% in test [5].
For the compound `Cc1ccccc1CN1C(=O)c2nc3ccccc3n2CC1(C)C(=O)NC1CCCC1` (stereo unspecified), the activity change, negative = inhibition is -2.59% in test [1]; -3.27% in test [2]; -0.37% in test [3]; -7.83% in test [4]; -3.43% in test [5].
Regarding `CC(C)C[C@H](CC(=O)NO)C(=O)N[C@@H](Cc1ccc2ccccc2c1)C(=O)N[C@@H](C)C(=O)NCCN`, the activity change, negative = inhibition is 3.4% in test [1]; 11.6% in test [2]; 4.83% in test [3]; -7.84% in test [4]; 0.405% in test [5].
For `Cn1c(=O)c2ccc(C(=O)NC3CCCC3)cc2n2c(SCC(=O)c3ccccc3)nnc12`, the activity change, negative = inhibition in test [1] stood at 4.76%; in test [2], 2%; in test [3], 8.83%; in test [4], 2.48%; in test [5], 1.61%.
As for `CC[C@H]1OC(=O)[C@](C)(F)C(=O)[C@H](C)[C@@H](O[C@@H]2O[C@H](C)C[C@H](N(C)C)[C@H]2O)[C@](C)(OC)C[C@@H](C)C(=O)[C@@H](C)[C@H]2N(CCCCn3cc(-c4cccc(N)c4)nn3)C(=O)O[C@]12C`, the activity change, negative = inhibition in test [1] was 4.5%; in test [2], 11.4%; in test [3], 5.42%; in test [4], -1.51%; in test [5], 4.3%.
For `Cc1cccc(-c2n[nH]n3c2nc(=O)c2ccc(C(=O)NCc4ccccc4)cc23)c1`, in that order: -19.2%, 4.84%, -5.49%, -3.58% and -6.73%.
As to `CCC(C)NC(=O)c1ccc2c(=O)n(Cc3ccccc3)c3nn(Cc4ccccc4Cl)c(=O)n3c2c1` (stereo unspecified), the activity change, negative = inhibition in test [1] was 3.47%; in test [2], 0%; in test [3] it was 0.409%; in test [4], 5.92%; in test [5] it was -1.51%.
The corresponding values for `CCCN1C(=O)c2c(C(=O)NCCc3ccccc3C)ncn2CC1(C)C(=O)NCCC(C)C` (stereo unspecified) are -2.41%, 3.63%, -5.23%, -4.62% and -0.768%.
Take `O=C(Nc1ccn[nH]1)c1c(F)cccc1F`: the activity change, negative = inhibition in test [1] is 1.44%; in test [2], 9.34%; in test [3] it was 1.59%; in test [4], -13.1%; in test [5] it was -10.9%.
For `C=C1CC[C@@H]2[C@](C)(CO)[C@H](O)CC[C@@]2(C)[C@@H]1CC(=O)C1=CCOC1=O`, in that order: 0%, -16.8%, 6.16%, -29.5% and -12.7%.
The corresponding values for `C/C=C(/C)C(=O)OC1CC(C)(C)CC2C3=CCC4C5(C)CCC(O[C@@H]6O[C@H](C(=O)O)[C@@H](O)[C@H](O)[C@H]6O[C@@H]6O[C@H](CO)[C@H](O)[C@H](O[C@@H]7OC[C@H](O)[C@H](O)[C@H]7O[C@@H]7O[C@H](CO)[C@@H](O)[C@H](O)[C@H]7O)[C@H]6O)C(C)(C)C5CCC4(C)C3(C)C(O)C(O)C12CO` (stereo partly specified) are 2.34%, -3.49%, 6.94%, -15.8% and 3.04%.
The corresponding values for `CN(C)C[C@@H]1CN(S(C)(=O)=O)C[C@H]1NC(=O)c1ccc2[nH]ccc2c1` are -5.3%, -12%, -4.76%, -12.2% and -10.4%.
`CCOC(=O)c1cc2n(n1)CC(C)(C(=O)NCc1ccccc1OC)N(c1ccccc1CC)C2=O` (stereo unspecified): the activity change, negative = inhibition in test [1] came to 5.74%; in test [2], 4.07%; in test [3] it was 11.9%; in test [4], 7.54%; in test [5], 5.75%.
Consider `CCn1c(C2CCCN(S(=O)(=O)c3cccc4nonc34)C2)nn(C)c1=O` (stereo unspecified), for which the activity change, negative = inhibition in test [1] was -2.12%; in test [2], -5.3%; in test [3], 0.137%; in test [4], -9.18%; in test [5] it was -10.9%.
`COc1cccc(CC(=O)N[C@@H]2C[C@H](Cn3cc(-c4cccnc4)nn3)[C@@H](O)[C@H]2O)c1`: the activity change, negative = inhibition in test [1] was -8.07%; in test [2] it was -8.15%; in test [3], -6.31%; in test [4], -14.1%; in test [5], -11.2%.
The corresponding values for `COc1ccc(CNC(=O)Cn2nc3n(CCCOC(C)C)c(=O)c4ccccc4n3c2=O)cc1` are 4.37%, 2.12%, 7.03%, 1.71% and 4.7%.
`Cc1ccc(C(=O)/C=C/c2ccccc2)s1`: the activity change, negative = inhibition in test [2] is -4.58%; in test [4] it was -19.1%; in test [5] it was -1.49%.
`CC(C)NC(=O)c1ccc2c(=O)n(C(C)C)c3nn(Cc4ccc(N5CCCC5=O)cc4)c(=O)n3c2c1`: the activity change, negative = inhibition in test [1] was 3.94%; in test [2], 1.08%; in test [3], 3.8%; in test [4] it was -1.17%; in test [5] it was -0.725%.
For `COC(=O)c1ccc(NS(=O)(=O)c2ccc3c(c2)n(C)c(=O)n3C)cc1`, in that order: -0.126%, 0%, 12.5%, 15.2% and 2.72%.

These data come from PubChem BioAssay AID1745853 (National Center for Advancing Translational Sciences (NCATS), 2022).
